Data from PubChem BioAssay AID1508623 (National Center for Advancing Translational Sciences (NCATS), 2021).
In all, about 48,000 compounds went through this assay and about 450 (0.94%) were called active. Another 19% or so got no clear call; they are omitted. Calls come from the whole dose curve; as a rule, active = well fitted inhibition curve with a large enough effect; inconclusive = small, poorly fitted or top-dose-only effect; inactive = no such curve, though single readings can be large or run the other way. This is one part of the list.

Assay: Primary qHTS for Identification of Small Molecule Inhibitors of Huntingtin Promoter Activity; note: nearly all actives have a fitted effect of over 50% in size
Conditions: HEK293 HTT promoter firefly luciferase reporter (activity 0% = vehicle and -100% = no light), 24 h; series mostly up to 57.5 µM; activity change, negative = inhibition: at the top concentration
How it was run: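 Firefly luciferase readout (Dual-Glo, 10 min RT) after 24 h, 37 °C compound exposure (final up to 57.5 uM) of HEK293 reporter cells cultured 24 h beforehand; PTC124 at 50 uM final as control inhibitor; activity scaled vehicle 0%, zero RLU -100%.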
Potency is the fitted concentration of half-maximal effect.

| SMILES | activity change, negative = inhibition | Potency |
| --- | --- | --- |
| CCC(Sc1nc2nccnc2c(=O)n1Cc1ccc(OC)cc1)C(=O)NC1CCCCC1 (configuration not stated) | inactive: -8.19% | – |
| CC(C)n1c(SCC(=O)Nc2ccc(F)cc2)nc2c(oc3ccccc32)c1=O | inactive: 1.55% | – |
| CCOc1ccccc1CNC(=O)c1ccc2c(c1)sc1nc(-c3cccc(OC)c3)cn12 | inactive: -7.61% | – |
| CC(C)C12CN3CC(C(C)C)(CN(C1)C3c1ccc(OCc3ccccc3)cc1)C2=O (configuration not stated) | inactive: -3.38% | – |
| CC(=O)c1cccc(NC(=O)c2ccc(-n3c(C)nnc3C)cc2)c1 | inactive: -14.9% [at 11.5 µM] | – |
| CCOc1ccc(-n2c(SCC(=O)Nc3ccc(F)cc3)nc3c([nH]c4ccccc43)c2=O)cc1 | inactive: -13.7% | – |
| CC(C)(C)OC(=O)N1CCC(c2nnc(SCc3ccccc3)o2)CC1 | inactive: -34.2% | – |
| Cc1cc(NC(=O)COc2ccccc2)cc(-c2nc3ccccc3o2)c1O | inactive: -21.7% | – |
| COc1ccccc1CNC(=O)c1ccc(N2Cc3cccc(OC)c3Oc3ncccc32)s1 | inactive: -1.3% | – |
| COc1ccc(-c2noc(-c3ccc(N4CCCCC4C)c([N+](=O)[O-])c3)n2)cc1OC (configuration not stated) | inactive: -5.21% | – |
| CCCn1c(-c2cccc(Br)c2)nc2ccccc21 | inactive: 10.7% | – |
| CCCN1C(=O)C(Cc2nc3ccccc3c(=O)n2-c2cccc(C)c2)c2ccccc21 (configuration not stated) | inactive: -18.4% | – |
| Cn1ncc(C(=O)N2CCN(c3ccc(F)cc3)CC2)c1C1CCN(C(=O)OC(C)(C)C)CC1 | inactive: -9.12% | – |
| Cc1ccc(C2=CC(c3c(F)cccc3Cl)n3ncnc3N2)cc1C (configuration not stated) | inactive: -15.4% [at 11.5 µM] | – |
| Cc1cc(C)cc(NC(=O)C2CCCN2S(=O)(=O)c2cccc3nsnc23)c1 (configuration not stated) | inactive: -27.7% | – |
| O=C(CSc1nnc2[nH]c(=O)cc(-c3ccccc3)n12)Nc1ccc(F)cc1F | inactive: 34.5% | – |
| Cc1ccc(C(=O)n2nc(C)c(S(=O)(=O)N3CCCCCC3)c2C)cc1 | inactive: -6.18% | – |
| COc1cccc(C2C(C(=O)Nc3ccccc3)=C(C)Nc3nc(-c4ccccc4)nn32)c1OC (configuration not stated) | inactive: -11.9% | – |
| Cc1cccc(-c2noc(-c3ccc(N4CCN(C)CC4)c([N+](=O)[O-])c3)n2)c1 | – | active: 1410 nM |
| COc1ccc(CNc2nc3c(c(=O)n(C)c(=O)n3C)n2Cc2ccccc2Cl)cc1 | inactive: -13.4% | – |
| Cc1ccc(Cn2c(C)c(CNCCCc3ccccc3)c(C(=O)O)c2C)cc1 | inactive: -15.3% | – |

| SMILES | activity change, negative = inhibition | Potency |
| --- | --- | --- |
| CC1CCN(S(=O)(=O)c2ccc3c(c2)CCC(=O)N3CC(=O)Nc2cccc(C#N)c2)CC1 | inactive: -19.7% | – |
| CCCCNC(=O)CSc1nnc(C)c2c(C)n(-c3ccccc3)nc12 | inactive: -15.3% | – |
| Cc1ccc(-c2noc(CNC(=O)c3ccccc3)n2)cc1 | inactive: -10.6% | – |
| Cc1ccc(-c2cc3c(n2-c2ccc(C)cc2)CC(C)(C)CC3=O)cc1 | inactive: -3.03% | – |
| Cc1ccc(C2=NN(CC(=O)NCCN(CC(C)C)CC(C)C)C(=O)CC2)cc1 | inactive: -8.26% | – |
| CC(C)NC(=O)C1CCN(c2nc3ccccc3nc2C(F)(F)F)CC1 | inactive: -16% | – |
| CCCCCCCCCCCC[N+](C)(C)Cc1ccccc1 | inactive: 4.37% | – |
| O=C(NCCOCCn1c(=O)oc2ccccc21)Nc1ccc(F)cc1 | inactive: -13.9% | – |
| Cc1nc(N2CCCC2)ncc1C(=O)Nc1ccc(F)cc1F | inactive: 11.7% | – |
| COc1ccccc1OCC(=O)Nc1nc(-c2ccc(Br)cc2)ns1 | inactive: 7.43% | – |
| CC(C)N(Cc1ccccc1)C(=O)CCS(=O)(=O)c1ccc2c(c1)oc(=O)n2C | inactive: -24.7% [at 11.5 µM] | – |
| Cc1cc2c(cc1S(=O)(=O)N(CCN(C)C)Cc1ccco1)OCC(=O)N2 | inactive: 7.38% | – |
| Cc1ccc(CN2CCc3nc(N4CCN(C)CC4)ncc3C2)s1 | inactive: -10.2% | – |
| Cc1c(Cl)cccc1NC(=O)Cn1cnc2nc3c(cc2c1=O)CCCC3 | inactive: -0.625% | – |
| CC(=O)O[C@@H]1CC2C3CCc4cc(OC(=O)c5ccccc5)ccc4C3CCC2(C)[C@H]1OC(C)=O (some centres not stated) | inactive: -4.45% | – |
| CC(C)(C)CC(=O)NC1CC(=O)N(c2ccc3c(c2)OCCO3)C1 (configuration not stated) | inactive: -22.4% | – |
| O=C(c1ccc2c(c1)N(Cc1ccccc1F)C(=O)c1ccccc1S2=O)N1CCOCC1 (configuration not stated) | inactive: -22.3% | – |
| Cc1ccc2c(c1)cc1c(=O)n(CC(=O)N3CCCCC3)nc(C)n12 | inactive: -6.4% | – |
| Cc1cccc(N(C)C(=O)CSc2nc3ncccc3o2)c1 | inactive: -2.9% | – |
| CCCCCN=C(N)NN=Cc1c[nH]c2ccc(OC)cc12 | inactive: -31.2% | – |
| COc1ccc2c(c1)c1c(c(=O)n(-c3ccccc3)c(=O)n1CC(=O)Nc1ccc(C)c(C)c1)n2C | inactive: -19.2% | – |

| SMILES | activity change, negative = inhibition | Potency |
| --- | --- | --- |
| CN(Cc1ccccc1)S(=O)(=O)c1nnc(NC(=O)c2ccccc2)s1 | inactive: 1.58% | – |
| O=c1c(O)c(-c2ccc(O)cc2O)oc2cc(O)cc(O)c12 | inactive: 0.812% | – |
| Cc1cccc(N(C)C(=O)CCNS(=O)(=O)c2ccc3c(c2)CCN3C(=O)C2CC2)c1 | inactive: -16.9% | – |
| Cc1ccc(C)c(CS(=O)(=O)c2cn(CC(=O)N(C(C)C)C(C)C)c3ccccc23)c1 | inactive: -27% | – |
| COC(=O)CCn1cnc2onc(-c3cc(F)cc(F)c3)c2c1=O | inactive: -18.6% | – |
| Fc1ccc2ncc3c(-c4ccccc4)n[nH]c3c2c1 | inactive: -25.7% | – |
| Cn1ncc2c(Nc3cccc(F)c3)ncnc21 | inactive: -25.5% | – |
| O=C(Nc1c(C(=O)Nc2ccccc2F)oc2ccccc12)c1cc2ccccc2o1 | inactive: -9.71% | – |
| COc1ccc(C2CNC(=O)C2)cc1OC1CCCC1 (configuration not stated) | inactive | – |
| COc1cc(C(CC(=O)NCCC(C)C)N2Cc3ccccc3C2=O)cc(OC)c1OC (configuration not stated) | inactive: -21.6% | – |
| COc1cc(NC(=O)CN2CCN(CC(=O)Nc3ccc(F)cc3)CC2)cc(OC)c1 | inactive: -4.13% | – |
| COc1cc(NC(=O)Cn2c(=O)n(Cc3ccco3)c(=O)c3oc4ccccc4c32)cc(OC)c1 | inactive: -7.57% | – |
| Cc1ccc(-c2nc(Cn3c(=O)cc(-c4ccccc4)c4c(C)nn(C)c43)c(C)o2)cc1 | inactive: 0.36% | – |
| O=C(CSc1nnc(-c2ccc([N+](=O)[O-])cc2)o1)Nc1ccccc1 | inactive: 66.7% | – |
| CN(C1CCCCC1)S(=O)(=O)c1ccc2c(c1)c(=O)c(C(=O)N1CCN(c3ccccc3F)CC1)cn2C | inactive: 3.14% | – |
| CCOc1ccc(NC(=O)c2cc(=O)c3ccc(C)c(C)c3o2)cc1 | inactive: -10.6% [at 11.5 µM] | – |
| Cn1cnc(S(=O)(=O)N2CCC(C(=O)N3CCN(c4ccccc4F)CC3)CC2)c1 | inactive: -8.88% | – |
| CSc1cccc(NS(=O)(=O)c2cn(C)c(C)n2)c1 | inactive: -3.69% | – |
| CCOc1ccc2c(c1)NC(c1cccs1)=NC(c1ccc(F)cc1)=N2 | inactive: -2.57% | – |
| CCN(c1ccccc1)c1nnc(NC(=O)Nc2ccc(Br)cc2F)s1 | inactive: 5.89% | – |
